{"source": "the supplement of paper PMC12230231", "note": "± gives the standard deviation of the averaged measurements. Restriction of a single-cycle SIVsab GFP reporter by TRIM5α v1-loop variants in CRFK cells. Human variants: read share among cells still uninfected after two challenges over input, higher = gained restriction. Rhesus variants: share among infected cells over input, higher = lost restriction. Reporter dose not given per row. No active / inactive call per row; the paper calls a change when both replicates lie above its controls (mean + 2 SD of stop or wild-type variants, or the top frameshift score). Residues outside the varied loop are taken from Swiss-Prot. The paper reads the human single-substitution scores as noise; they and the rhesus combinations repeat poorly (rank correlation 0.3 to 0.4), indel scores repeat only for the top variants, rhesus substitutions well (0.9)."}
{"tested_on": "SIVsab (simian immunodeficiency virus of sabaeus monkeys), single-cycle GFP reporter, in CRFK cells", "assay": "enrichment among uninfected cells over input (fold); higher = stronger restriction", "conditions": "library: human / rhesus combinations", "description": "(§1)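 Pools of CRFK cells expressing variants of the TRIM5α v1 loop were challenged with the single-cycle reporter, sorted by GFP and sequenced; mean of two replicates.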"}
{"sequence": "MASGILVNVKEEVTCPICLELLTQPLSLDCGHSFCQACLTANHKKSMLDKGESSCPVCRISYQPENIRPNRHVANIVEKLREVKLSPEGQKVDHCARHGEKLLLFCQEDGKVICWLCERSQEHRGHHTFLTEEVAREYQVKLQAALEMLRQKQQEAEELEADIREEKASWKTQIQYDKTNVLADFEQLRDILDWEESNELQNLEKEEEDILKSLTNSETEMVQQTQSLRELISDLEHRLQGSVMELLQGVDGVIKRTENVTLKKPETFPKNQRRVFRAPDLKGMLEVFRELTDVRRYWVDVTVAPNNISCAVISEDKRQVSSPKPQIIYGARGTLFPSLTNFNYCTGILGSQSITSGKHYWEVDVSKKTAWILGVCAGFQPDAMCNIEKNENYQPKYGYWVIGLEEGVKCSAFQDSSFHTPSVPFIVPLSVIICPDRVGVFLDYEACTVSFFNITNHGFLIYKFSHCSFSQPVFPYLNPRKCGVPMTLCSPSS [human TRIM5α, 330-340 = GARGTLFPSLT]", "enrichment": "0.00365 ± 0.003"}
{"sequence": "MASGILVNVKEEVTCPICLELLTQPLSLDCGHSFCQACLTANHKKSMLDKGESSCPVCRISYQPENIRPNRHVANIVEKLREVKLSPEGQKVDHCARHGEKLLLFCQEDGKVICWLCERSQEHRGHHTFLTEEVAREYQVKLQAALEMLRQKQQEAEELEADIREEKASWKTQIQYDKTNVLADFEQLRDILDWEESNELQNLEKEEEDILKSLTNSETEMVQQTQSLRELISDLEHRLQGSVMELLQGVDGVIKRTENVTLKKPETFPKNQRRVFRAPDLKGMLEVFRELTDVRRYWVDVTVAPNNISCAVISEDKRQVSSPKPQIIYQARGTRYTFPSLTNFNYCTGILGSQSITSGKHYWEVDVSKKTAWILGVCAGFQPDAMCNIEKNENYQPKYGYWVIGLEEGVKCSAFQDSSFHTPSVPFIVPLSVIICPDRVGVFLDYEACTVSFFNITNHGFLIYKFSHCSFSQPVFPYLNPRKCGVPMTLCSPSS [human TRIM5α, 330-340 = QARGTRYTFPSLT]", "enrichment": "0.251 ± 0.004"}
{"tested_on": "SIVsab (simian immunodeficiency virus of sabaeus monkeys), single-cycle GFP reporter, in CRFK cells", "assay": "enrichment among uninfected cells over input (fold); higher = stronger restriction", "conditions": "library: insertions and deletions", "description": "as §1"}
{"sequence": "MASGILVNVKEEVTCPICLELLTQPLSLDCGHSFCQACLTANHKKSMLDKGESSCPVCRISYQPENIRPNRHVANIVEKLREVKLSPEGQKVDHCARHGEKLLLFCQEDGKVICWLCERSQEHRGHHTFLTEEVAREYQVKLQAALEMLRQKQQEAEELEADIREEKASWKTQIQYDKTNVLADFEQLRDILDWEESNELQNLEKEEEDILKSLTNSETEMVQQTQSLRELISDLEHRLQGSVMELLQGVDGVIKRTENVTLKKPETFPKNQRRVFRAPDLKGMLEVFRELTDVRRYWVDVTVAPNNISCAVISEDKRQVSSPKPQIIYGARGTRYQTFVNFNYCTGILGSCTGILGSQSITSGKHYWEVDVSKKTAWILGVCAGFQPDAMCNIEKNENYQPKYGYWVIGLEEGVKCSAFQDSSFHTPSVPFIVPLSVIICPDRVGVFLDYEACTVSFFNITNHGFLIYKFSHCSFSQPVFPYLNPRKCGVPMTLCSPSS [human TRIM5α, 7-codon duplication at 345]", "enrichment": "0.313 ± 0.44"}
{"sequence": "MASGILVNVKEEVTCPICLELLTQPLSLDCGHSFCQACLTANHKKSMLDKGESSCPVCRISYQPENIRPNRHVANIVEKLREVKLSPEGQKVDHCARHGEKLLLFCQEDGKVICWLCERSQEHRGHHTFLTEEVAREYQVKLQAALEMLRQKQQEAEELEADIREEKASWKTQIQYDKTNVLADFEQLRDILDWEESNELQNLEKEEEDILKSLTNSETEMVQQTQSLRELISDLEHRLQGSVMELLQGVDGVIKRTENVTLKKPETFPKNQRRVFRAPDLKGMLEVFRELTDVRRYWVDVTVAPNNISCAVISEDKRQVSSPKPQIIYGARGIIYGARGTRYQTFVNFNYCTGILGSQSITSGKHYWEVDVSKKTAWILGVCAGFQPDAMCNIEKNENYQPKYGYWVIGLEEGVKCSAFQDSSFHTPSVPFIVPLSVIICPDRVGVFLDYEACTVSFFNITNHGFLIYKFSHCSFSQPVFPYLNPRKCGVPMTLCSPSS [human TRIM5α, 7-codon duplication at 327]", "enrichment": "0.383 ± 0.38"}
{"sequence": "MASGILVNVKEEVTCPICLELLTQPLSLDCGHSFCQACLTANHKKSMLDKGESSCPVCRISYQPENIRPNRHVANIVEKLREVKLSPEGQKVDHCARHGEKLLLFCQEDGKVICWLCERSQEHRGHHTFLTEEVAREYQVKLQAALEMLRQKQQEAEELEADIREEKASWKTQIQYDKTNVLADFEQLRDILDWEESNELQNLEKEEEDILKSLTNSETEMVQQTQSLRELISDLEHRLQGSVMELLQGVDGVIKRTENVTLKKPETFPKNQRRVFRAPDLKGMLEVFRELTDVRRYWVDVTVAPNNISCAVISEDKRQVSSPKPQIIYGARGTRYQTFVTFVNFNYCTGILGSQSITSGKHYWEVDVSKKTAWILGVCAGFQPDAMCNIEKNENYQPKYGYWVIGLEEGVKCSAFQDSSFHTPSVPFIVPLSVIICPDRVGVFLDYEACTVSFFNITNHGFLIYKFSHCSFSQPVFPYLNPRKCGVPMTLCSPSS [human TRIM5α, 3-codon duplication at 338]", "enrichment": "0.546 ± 0.39"}
{"sequence": "MASGILVNVKEEVTCPICLELLTQPLSLDCGHSFCQACLTANHKKSMLDKGESSCPVCRISYQPENIRPNRHVANIVEKLREVKLSPEGQKVDHCARHGEKLLLFCQEDGKVICWLCERSQEHRGHHTFLTEEVAREYQVKLQAALEMLRQKQQEAEELEADIREEKASWKTQIQYDKTNVLADFEQLRDILDWEESNELQNLEKEEEDILKSLTNSETEMVQQTQSLRELISDLEHRLQGSVMELLQGVDGVIKRTENVTLKKPETFPKNQRRVFRAPDLKGMLEVFRELTDVRRYWVDVTVAPNNISCAVISEDKRQVSSPKPQIIYGARGTRYQTFVNFNYCCTGILGSQSITSGKHYWEVDVSKKTAWILGVCAGFQPDAMCNIEKNENYQPKYGYWVIGLEEGVKCSAFQDSSFHTPSVPFIVPLSVIICPDRVGVFLDYEACTVSFFNITNHGFLIYKFSHCSFSQPVFPYLNPRKCGVPMTLCSPSS [human TRIM5α, 1-codon duplication at 345]", "enrichment": "1.25 ± 0.3"}
{"sequence": "MASGILVNVKEEVTCPICLELLTQPLSLDCGHSFCQACLTANHKKSMLDKGESSCPVCRISYQPENIRPNRHVANIVEKLREVKLSPEGQKVDHCARHGEKLLLFCQEDGKVICWLCERSQEHRGHHTFLTEEVAREYQVKLQAALEMLRQKQQEAEELEADIREEKASWKTQIQYDKTNVLADFEQLRDILDWEESNELQNLEKEEEDILKSLTNSETEMVQQTQSLRELISDLEHRLQGSVMELLQGVDGVIKRTENVTLKKPETFPKNQRRVFRAPDLKGMLEVFRELTDVRRYWVDVTVAPNNISCAVISEDKRQVSSPKPQIIYGARGTRYQTFVNFVNFNYCTGILGSQSITSGKHYWEVDVSKKTAWILGVCAGFQPDAMCNIEKNENYQPKYGYWVIGLEEGVKCSAFQDSSFHTPSVPFIVPLSVIICPDRVGVFLDYEACTVSFFNITNHGFLIYKFSHCSFSQPVFPYLNPRKCGVPMTLCSPSS [human TRIM5α, 3-codon duplication at 339]", "enrichment": "0.572 ± 0.28"}
{"sequence": "MASGILVNVKEEVTCPICLELLTQPLSLDCGHSFCQACLTANHKKSMLDKGESSCPVCRISYQPENIRPNRHVANIVEKLREVKLSPEGQKVDHCARHGEKLLLFCQEDGKVICWLCERSQEHRGHHTFLTEEVAREYQVKLQAALEMLRQKQQEAEELEADIREEKASWKTQIQYDKTNVLADFEQLRDILDWEESNELQNLEKEEEDILKSLTNSETEMVQQTQSLRELISDLEHRLQGSVMELLQGVDGVIKRTENVTLKKPETFPKNQRRVFRAPDLKGMLEVFRELTDVRRYWVDVTVAPNNISCAVISEDKRQVSSPKPQIIYRYQTFVNFNYCTGILGSQSITSGKHYWEVDVSKKTAWILGVCAGFQPDAMCNIEKNENYQPKYGYWVIGLEEGVKCSAFQDSSFHTPSVPFIVPLSVIICPDRVGVFLDYEACTVSFFNITNHGFLIYKFSHCSFSQPVFPYLNPRKCGVPMTLCSPSS [human TRIM5α, 5-codon deletion at 330]", "enrichment": "0.825 ± 0.25"}
